# Measured values as given in the supplement of paper PMC12009370.
# Some of the results follow. Many values rest on one well or one pass, so single values are uncertain.
# Tests used:
# [1] = tested on: IMR-32; experiment: drug sensitivity score (DSS), single drug with vehicle (DSS (score)); higher = more cytotoxic; extreme values may be limits of the assay; settings: 72 h; co-treatment: vehicle (DMSO)
# [2] = tested on: SK-N-AS; experiment: as above; settings: 72 h; co-treatment: vehicle (DMSO)
# [3] = tested on: SK-N-AS; experiment: drug sensitivity score (DSS) in combination with SL-176 (DSS (score)); higher = more cytotoxic; extreme values may be limits of the assay; settings: 72 h; co-treatment: SL-176 11.2 uM (IC25 in IMR-32)
# [4] = tested on: IMR-32; experiment: as above; settings: 72 h; co-treatment: SL-176 11.2 uM (IC25 in IMR-32)
# [5] = tested on: SK-N-AS; experiment: drug sensitivity score (DSS) in combination with GSK2830371 (DSS (score)); neuroblastoma lines; SL-176 and GSK2830371 are WIP1 inhibitors; higher = more cytotoxic; extreme values may be limits of the assay; settings: 72 h; co-treatment: GSK2830371 at IC25 in IMR-32
# [6] = tested on: IMR-32; experiment: as above; settings: 72 h; co-treatment: GSK2830371 at IC25 in IMR-32
# 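Wherever drug sensitivity score (DSS) in combination with GSK2830371 is given: neuroblastoma cells in 384-well plates, each compound at five concentrations, luminescence read-out, DSS derived from fitted concentration-response curve combining IC50 with minimum and maximum inhibition.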
# 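Wherever drug sensitivity score (DSS) in combination with SL-176 is given: cells in 384-well plates, luminescence read-out, each screening drug at five concentrations, DSS derived from the fitted concentration-response curve combining IC50 with minimum and maximum inhibition.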
# 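Wherever drug sensitivity score (DSS), single drug with vehicle is given: 384-well screen with five concentrations per compound and a luminescence read-out, DSS computed from the fitted dose-response curve combining IC50 with minimum and maximum inhibition.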
SMILES,drug sensitivity score [1],drug sensitivity score [2],drug sensitivity score [3],drug sensitivity score [4],drug sensitivity score [5],drug sensitivity score [6]
Cc1cnc(NC(=O)Nc2cc(Br)c(C)cc2OC[C@@H]2CNCCO2)cn1 [Rabusertib],2.7,3.9,3.1,2.1,4.7,4.1
CC(C)C[C@H](NC(=O)[C@H](Cc1ccccc1)NC(=O)c1cnccn1)B(O)O [Bortezomib],35.2,28.3,27.5,30.4,28.6,31.2
Cn1cc(C[C@@H](N)C(=O)O)c2ccccc21 [1-methyl-D-tryptophan],0,0,0,0,0,0
COc1cc(OC2CCN(C)CC2)ccc1Nc1ncc2c(n1)n(C1CCCC1)c(=O)n2C,5.1,3.2,3.7,8.7,3,8.8
O=C(Nc1cnn2ccc(N3CCC[C@@H]3c3cc(F)ccc3F)nc12)N1CC[C@H](O)C1 [Larotrectinib],0,0,0,0,0,0
C=CC(=O)Nc1cc(Nc2nccc(-c3cn(C)c4ccccc34)n2)c(OC)cc1N(C)CCN(C)C [Osimertinib],7.7,5,4,7.8,4.9,8.7
O=C(Nc1nc2cccc(-c3ccc(CN4CCS(=O)(=O)CC4)cc3)n2n1)C1CC1 [Filgotinib],9.3,3.7,2.3,8.8,2.9,9.5
COCC[n+]1c2c(n(Cc3cnccn3)c1C)C(=O)c1ccccc1C2=O [Sepantronium bromide],42.2,37.2,36.7,44.7,37,42.1
COc1ccc(C[C@H](NC(=O)[C@H](C)NC(=O)CN2CCOCC2)C(=O)N[C@@H](Cc2ccccc2)C(=O)C2(C)CO2)cc1 (stereo in doubt),17.8,19.7,20.1,21.1,19.7,17.1
Cc1ccc(NC(=O)c2ccc(CN3CCN(C)CC3)cc2)cc1Nc1nc(-c2cccnc2)cs1 [Masitinib],6.6,4.2,4.1,6.9,3.8,8.7
Nc1nc2[nH]cc(CCc3ccc(C(=O)N[C@@H](CCC(=O)O)C(=O)O)cc3)c2c(=O)[nH]1 [Pemetrexed],19,2.1,3.2,14.2,3.9,27.4
CC(C)(C#N)c1cc(Cn2cncn2)cc(C(C)(C)C#N)c1 [Anastrozole],0,0,0,0,0,0
COc1cc(C(=O)O)ccc1NC(=O)[C@@H]1N[C@@H](CC(C)(C)C)[C@](C#N)(c2ccc(Cl)cc2F)[C@H]1c1cccc(Cl)c1F [Idasanutlin],25.7,0,3.1,30.9,0.2,35.2
CO[C@@H](C(=O)N1Cc2[nH]nc(NC(=O)c3ccc(N4CCN(C)CC4)cc3)c2C1)c1ccccc1 [Danusertib],32,13,11.5,33.8,14.9,32.6
C[C@@H](Oc1ccc2[nH]nc(/C=C/c3cnn(CCO)c3)c2c1)c1c(Cl)cncc1Cl,16.2,4.8,5.1,16.3,5.7,20.2
C[C@@H]1C[C@H]2[C@@H]3CCC4=CC(=O)C=C[C@]4(C)[C@@]3(F)[C@@H](O)C[C@]2(C)[C@@]1(O)C(=O)CO [Dexamethasone],0,0,0,0.4,0,0
CCn1cc(-c2ccnc3[nH]c(-c4cccc(CN(C)C)c4)cc23)c(-c2ccc(NC(=O)N(C)C)cc2)n1,27.9,5.6,3.5,30.2,5,27.2
CN1CCc2c(c3ccccc3n2Cc2ccc(C(=O)NO)cc2)C1 [Tubastatin A],3.9,3.5,2.2,5.5,3.3,5.1
CCOCc1nc2c(N)nc3ccccc3c2n1CC(C)(C)O [Resiquimod],0,0,0,0,0.8,0
COc1c(C)cnc(Cn2cnc3c(Cl)nc(N)nc32)c1C,17.8,18.1,22,15.7,19.4,22.2
C=C1C[C@@H]2CC[C@@]34C[C@H]5O[C@H]6[C@@H](O3)[C@H]3O[C@H](CC[C@@H]3O[C@H]6[C@H]5O4)CC(=O)C[C@@H]3[C@@H](OC)[C@@H](C[C@H](O)CN)O[C@H]3C[C@H]3O[C@@H](CC[C@@H]1O2)C[C@@H](C)C3=C [Eribulin],41.6,30.3,29,39.5,30.2,42.4
CC[C@H](CC#N)OC(=O)N[C@@H](C)c1cccc(NC(=O)Nc2ccc(-c3cnco3)c(OC)c2)c1,25.8,13.4,16.8,26.7,17.2,28.9
COc1cccc(OCCCN)c1-c1cc(Nc2cnc(C#N)cn2)n[nH]1 [Prexasertib],31.2,27.8,28.4,31,27.5,29.9

SMILES,drug sensitivity score [1],drug sensitivity score [2],drug sensitivity score [3],drug sensitivity score [4],drug sensitivity score [5],drug sensitivity score [6]
CC(C)Oc1ccc(C(=O)N[C@H](CNC(=O)CN(C)C)Cc2ccc(-c3cn4cccc([C@H](C)O)c4n3)cc2)cc1Cl,25.4,3.3,10.8,25.7,9.7,30.4
COc1cc2c(cc1OCCCN1CCCC1)N=C(N)C21CCC1,2.4,4.9,6.3,6.5,5.4,2.1
C#Cc1cccc(Nc2ncnc3cc4c(cc23)OCCOCCOCCO4)c1 [Icotinib],0.1,0.2,0.5,0,0.1,0
Nc1ccccc1NC(=O)c1ccc(CNc2nccc(-c3cccnc3)n2)cc1 [Mocetinostat],21.8,12.1,12.2,18.9,12,20
O=C(CCCCCCC(=O)Nc1ccccc1)NO [Vorinostat],16.6,11,12.2,18.1,11.7,19.8
CO[C@@]12[C@H](COC(N)=O)C3=C(C(=O)C(C)=C(N)C3=O)N1C[C@@H]1N[C@@H]12 [Mitomycin C],12,1.2,0.2,12.3,0.7,16.6
COc1cc2c(Nc3ccc(Cl)c(Cl)c3F)ncnc2cc1OC[C@@H]1C[C@@H]2CN(C)C[C@@H]2C1 [Tesevatinib],0,0.9,2.9,0.1,1.5,0.6
C#Cc1cccc(Nc2ncnc3cc(OCCOC)c(OCCOC)cc23)c1 [Erlotinib],0,1.2,0.9,1.4,1.5,2.7
COc1ncc(-c2ccc3nccc(-c4ccnnc4)c3c2)cc1NS(=O)(=O)c1ccc(F)cc1F [Omipalisib],12.3,16,15.6,14,15.5,17.7
O=C(/C=C\n1cnc(-c2cc(C(F)(F)F)cc(C(F)(F)F)c2)n1)NNc1cnccn1 [Selinexor],31.3,18.9,18.9,29,19.1,32.5
CC(C)Cn1cnc2c(N)nc3ccccc3c21 [Imiquimod],0.1,0,0,0.5,0,0
Cc1cn(-c2cc(NC(=O)c3ccc(C)c(Nc4nccc(-c5cccnc5)n4)c3)cc(C(F)(F)F)c2)cn1 [Nilotinib],3.8,3.8,3.7,5.1,0.2,4.2
N#CC(c1ccnc(OCc2ccc(CN3CCOCC3)cc2)n1)c1nc2ccccc2s1 (stereo unspecified) [Bentamapimod],2.1,3.4,3.1,2.7,3.3,3.7
O=C(O)CC1CC(c2ccccc2)=NO1 (stereo unspecified),0,0,0,0,0,0
C[C@H]1O[C@@H](O[C@H]2[C@@H](O)C[C@H](O[C@H]3[C@@H](O)C[C@H](O[C@H]4CC[C@@]5(C)[C@H](CC[C@@H]6[C@@H]5C[C@@H](O)[C@]5(C)[C@@H](C7=CC(=O)OC7)CC[C@]65O)C4)O[C@@H]3C)O[C@@H]2C)C[C@H](O)[C@@H]1O [Digoxin],15.9,15.1,14.3,13.1,17.5,16.9
CC[C@@H]1C(=O)N(C)c2cnc(Nc3ccc(C(=O)NC4CCN(C)CC4)cc3OC)nc2N1C1CCCC1,27.7,23.3,23.7,34.7,24.6,29.9
Oc1ncnc2[nH]ncc12 [Allopurinol],3.2,0,0,0,0,0
CCC(C)n1ncn(-c2ccc(N3CCN(c4ccc(OCC5COC(Cn6cncn6)(c6ccc(Cl)cc6Cl)O5)cc4)CC3)cc2)c1=O (stereo unspecified) [Itraconazole],0.9,0,1.5,4,1.7,1.4
COc1cc(Nc2ncc(F)c(Nc3ccc4c(n3)NC(=O)C(C)(C)O4)n2)cc(OC)c1OC [Tamatinib],6.3,3.3,1.5,1.9,3.1,10.2
CC1=C2C[C@H]3[C@@H](CC[C@@H]4C[C@H](NS(C)(=O)=O)CC[C@@]43C)[C@@H]2CC[C@@]2(C1)O[C@@H]1C[C@H](C)CN[C@H]1[C@H]2C [Saridegib],0,0,0.1,3,0,0.9
CN(C)CCOc1ccc(/C(=C(/CCCl)c2ccccc2)c2ccccc2)cc1 [Toremifene],5.6,3.9,4.6,7.9,5.3,5
Cc1ccc(=O)n(-c2ccccc2)c1 [Pirfenidone],1.1,0,0,0.3,0,0
O[C@H]1CC[C@H](Nc2ncc3nc(Nc4c(F)cc(F)cc4F)n([C@H]4CCOC4)c3n2)CC1 [Tanzisertib],0,0,0.2,0,0.7,0.2
